# Assay results as given in PubChem BioAssay AID1814 (Broad Institute, 2009).
# Screen size: about 300,000 compounds; about 22,000 (7.3%) were called active. The inconclusive results got no clear call from the source; some entries with a clear call stand among them for comparison. No stated cut-off is given here; in the data, active means activity score below about -60%; inconclusive means mostly about -28% to -61%; inactive means positive scores.
# Assay: Activators via SNCA 5'UTR binding, MLPCN (AID 1814)
# Conditions: alpha-synuclein 5'UTR reporter, activators screen; active compounds read low; tested at 7.5 µM
row,Structure (SMILES),activity score
1,CCOC(=O)c1sc(Nc2nc(C)cc(C)n2)nc1C,inactive: 84.1%
2,COc1ccc2c(c1)-c1nc(NC(=O)c3ccco3)sc1CC2,inconclusive: -29%
3,Cc1ccc2c(c1)sc1nc(=O)n(-c3ccc(Cl)cc3)c(=O)n12,inconclusive: -59.1%
4,Cc1ccc(-c2cc(N)n3nc(-c4ccc(C)cc4)cc3n2)cc1,inconclusive: -42.8%
5,COc1cc(/C=C(\C#N)C(=O)Nc2ccc3c(c2)OCCO3)ccc1O,inconclusive: -57.9%
6,O=C(Nc1ccccc1C(=O)Nc1nnc(C(F)(F)F)s1)c1ccccc1,inactive: 58.5%
7,CC(C)(C)n1nc2c(c1NC(=O)Cc1ccc(F)cc1)CSC2,inconclusive: -44.3%
8,CC(=O)N(CCN(C)C)c1nc2cc3c(cc2s1)OCCO3,inconclusive: -50%
9,CC(C)N1C/C(=C/c2ccsc2)C(=O)/C(=C/c2ccsc2)C1,inconclusive: -49.2%
10,CCOC(=O)c1c(C)[nH]c(C(=O)OCC(=O)NCCc2ccc(OCC)c(OCC)c2)c1C,inactive: 60.1%
11,COc1ccccc1-c1nnc(Nc2nc3c(OC)cccc3s2)o1,inactive: 81.5%
12,Cc1cc(C(=O)COC(=O)c2cccn2C)c(C)n1Cc1ccco1,inactive: 76.9%
13,Cc1nc2ccc(NC(=O)c3ccc([N+](=O)[O-])cc3)cc2s1,inconclusive: -50.8%
14,Nc1nc(-c2ccc(Cl)cc2)nn1C(=O)c1cccnc1,inconclusive: -59.6%
15,NS(=O)(=O)c1cccc(NC(=O)CCCC2CCCCC2)c1,inconclusive: -49.4%
16,CCOc1ccccc1NC(=O)N1CCCC(c2nc(-c3ccc(C)o3)no2)C1 (stereo not given),inconclusive: -57.1%
17,CC(C)C(=O)NC(c1ccco1)c1ccc2cccnc2c1O (stereo not given),inactive: 63.1%
18,Cc1ccc(-c2nnc(-c3ccccc3)c(-c3ccccc3)n2)cc1,inconclusive: -50%
19,COc1ccc(NC(=O)c2ccco2)cc1N,inconclusive: -49%
20,O=C(NCc1ccco1)c1cc(-c2ccco2)on1,inconclusive: -60.6%
21,Brc1ccc(-c2nnc(Cc3ccccc3)o2)cc1,active: -169%
22,O=c1oc2ccccc2cc1-c1cn2ccccc2n1,inactive: 98.2%
23,Clc1ccc2c(c1)C1OCCC1C(c1ccco1)N2 (stereo not given),active: -125%
24,CCOc1ccccc1Nc1nc2ccccc2[nH]1,inconclusive: -48.3%

row,Structure (SMILES),activity score
1,COc1ccc(-c2nc3n(n2)C(=O)CC(c2ccco2)S3)cc1 (stereo not given),inconclusive: -48.1%
2,CCC(=O)NC(c1ccccc1OC)c1ccc2cccnc2c1O (stereo not given),inactive: 79.9%
3,CCN(CC)C(=O)c1ccc2nc3ccccc3nc2c1,inactive: 50.2%
4,O=C(/C=C/c1cccs1)c1ccc(NC(=O)c2ccccc2F)cc1,inconclusive: -54.3%
5,Cc1cccc(NC(=O)c2c(O)c3ccccc3n(C)c2=O)c1,active: -141%
6,CCCc1n[nH]c2c1/C(=N/O)CC(c1ccccc1)C2 (stereo not given),inactive: 69.4%
7,O=C(Oc1ccc2ccc(O)cc2c1)c1ccccc1Cl,active: -128%
8,C=CCn1c(C)cc(C2=NNC(=NC(C)(C)C)SC2)c1C,inactive: 89.4%
9,COc1ccc(/C=c2/sc3n(c2=O)C(c2ccccc2OC)C2=C(N=3)c3ccccc3CC2)cc1O (stereo not given),inactive: 94.3%
10,Cc1ccc(C(NC(=O)NCCCN2CCOCC2)=C(Cl)Cl)cc1F,active: -69.5%
11,C/C(=N\NC(=O)c1ccoc1C)c1ccc(Cl)s1,inconclusive: -43.5%
12,CCN1/C(=C/c2ccc3cc(C)ccc3[n+]2CC)Sc2ccccc21,inactive: 99.9%
13,CCC(CO)Nc1ccc(-c2nn(C)c(=O)c3ccccc23)cc1[N+](=O)[O-] (stereo not given),inconclusive: -35.4%
14,CNc1nc2ccccc2n1N,inconclusive: -51.1%
15,COc1ccc(S(=O)(=O)/N=C2\C=C(Nc3ccc(O)cc3)C(=O)c3ccccc32)cc1,inactive: 100%
16,O=C(OCC(=O)N1CCCC1)c1cccc(Br)c1,inconclusive: -60.6%
17,O=C(/C=C/Nc1cccc([N+](=O)[O-])c1)c1cccs1,active: -279%
18,CCCCN1CCc2c([nH]c3ccccc23)C1=O,active: -128%
19,CSc1ccccc1NC(=O)c1cc(-c2ccco2)on1,inconclusive: -61.5%
20,Cc1cnc(C(=O)Nc2ccc3c(c2)CCC3)cn1,active: -136%
21,O=C(c1ccc(Cl)cc1)N1CCCCC(Sc2nnc(-c3ccc4c(c3)OCO4)o2)C1=O (stereo not given),inactive: 92%
22,O=C(c1cc(-c2ccncc2)nc2c(Cl)cccc12)N1CCN(c2ccccc2F)CC1,inactive: 99.1%
23,CCOC(=O)C1(CCOc2ccccc2)CCN(Cc2ccccc2O)CC1,inconclusive: -33.6%
24,CCCCCCc1cc2cc(C(=O)Nc3ccccc3)c(=O)oc2cc1O,inactive: 91.7%

row,Structure (SMILES),activity score
1,O=C(NNC(=S)Nc1ccc(Cl)c(Cl)c1)c1ccccn1,inactive: 68%
2,COc1ccc(NC(=O)NCCN2C(=O)C3C4C=CC(C4)C3C2=O)cc1 (stereo not given),inconclusive: -52.9%
3,CC(/C=N/NC(=O)c1cccc([N+](=O)[O-])c1)=C\c1ccccc1,inconclusive: -52.1%
4,CC(=O)Oc1ccc2oc(/C=C/N(C)C)c([N+](=O)[O-])c2c1,inconclusive: -49.4%
5,CCOC(=O)c1c2c(n(C)c1C)C(=O)C(=O)c1ccc(Br)cc1-2,inactive: 110%
6,Cc1ccc(SCCN2CCC(C(C)(C)C)CCC2=O)cc1 (stereo not given),inconclusive: -58.5%
7,Clc1nc(-c2ccccc2)cc(-c2ccc(Br)cc2)n1,inconclusive: -54.7%
8,O=C(Nc1nnc(Cc2ccccc2)s1)Nc1ccccc1F,active: -103%
9,COc1ccc2c(c1)[nH]c1c(=O)n(/N=C/C3C(C)C=C(C)CC3C)c(=O)[nH]c12 (stereo not given),inactive: 57.5%
10,COc1ccc(OC)c(-c2cc(C(=O)Nc3c(C)nn(Cc4ccccc4C)c3C)no2)c1,inactive: 60.3%
11,O=C1C=C(c2ccccc2)C[C@H](c2cccs2)[C@H]1n1nnc([N+](=O)[O-])n1,inactive: 88.3%
12,O=C1/C(=C/c2ccc(N3CCCC3)cc2)NC(=S)N1C1CC1,inconclusive: -54.9%
13,CCCCC(=O)NC(c1ccc(Cl)cc1Cl)c1ccc2cccnc2c1O (stereo not given),inactive: 91.6%
14,COc1cc(/C=C(\C#N)c2nc3ccccc3[nH]2)ccc1O,active: -152%
15,O=C(NNC(=S)Nc1ccc(F)c(Cl)c1)c1ccccc1Br,inconclusive: -56.1%
16,COc1ccc(C(=O)/C=C2\NCCc3cc(OC)c(OC)cc32)cc1OC,inactive: 64.1%
17,Cn1c(SCC(=O)Nc2nccs2)nnc1C12CC3CC(CC(C3)C1)C2,inconclusive: -42.3%
18,COc1cc(/C=N/O)ccc1OCc1ccc(C(=O)O)cc1,inactive: 116%
19,Cc1nc(Nc2nc3ccccc3o2)nc2c1CCC2,inactive: 71.1%
20,O=C(/C=C/c1ccc2c(c1)OCCCO2)c1ccccc1O,active: -311%
21,Cc1cc(NS(=O)(=O)c2ccc(NC(=O)Nc3ccc4c(c3)OCO4)cc2)no1,active: -70.9%
22,Cc1ccc(C(=O)Nc2ccc(N3CCN(C)CC3)cc2)cc1,active: -88.2%
23,CN(C(=O)c1ccco1)c1nc2c(s1)CCCC2,inconclusive: -46.4%
24,CCOC(=O)Cn1cc(C(=O)c2cccs2)c2ccccc21,inconclusive: -45.2%

row,Structure (SMILES),activity score
1,O=C(NCCc1ccc(Cl)cc1)c1cc2ccccn2n1,inconclusive: -57.8%
2,Cc1cc([N+](=O)[O-])ccc1-c1ccc(C2Nc3ccccc3C(=O)N2O)o1 (stereo not given),inactive: 82.6%
3,N#Cc1c(NC(=O)C2CC(c3ccccc3Cl)=NO2)sc2c1CCC2 (stereo not given),inconclusive: -31.6%
4,CCOC(=O)N1CCN(C(=O)c2ccc3c(c2)NC(=O)/C(=C\c2cccc(C)c2)S3)CC1,inconclusive: -57.6%
5,CC(C)CC(=O)Nc1cccc(-c2nc3ccccc3o2)c1,inconclusive: -58.4%
6,C=CCOc1c(CNc2ccc(C(=O)O)cc2)cccc1OCC,inconclusive: -55.9%
7,COc1ccc(-c2noc(CN(C)Cc3ccccc3)n2)c(OC)c1OC,active: -68.1%
8,COc1ccc(-c2cc3c(nn2)-c2ccccc2C3=O)cc1,inactive: 98.4%
9,O=C(Nc1nnc(C2CC2)s1)c1cc(Cl)sc1Cl,inconclusive: -54.2%
10,CCCC(=O)Nc1nc2ccc(NC(=O)c3cccnc3)cc2s1,inconclusive: -59%
11,CCOc1nc(NC(=O)NS(=O)(=O)Oc2ccccc2Cl)nc(-c2ccccc2)n1,inconclusive: -35.6%
12,c1ccc2nc(-c3ccc(N4CCOCC4)cc3)ccc2c1,inactive: 104%
13,Clc1ccc(-c2nnc(-c3ccccc3)nc2N2CCSCC2)cc1,inconclusive: -55.7%
14,Cc1ccsc1/C=N/Nc1nc2ccccc2[nH]1,active: -213%
15,C=CCc1c(O)nc(SCC(=O)c2ccccc2)[nH]c1=O,inconclusive: -56.6%
16,O=C(CCCc1ccccc1)c1ccc2c(c1)OCCO2,inactive: 86.2%
17,CC1CN(C(=O)c2ccc(COc3ccc(C(C)C)cc3)o2)CC(C)O1 (stereo not given),active: -110%
18,CN(C)CC(CCC(CN(C)C)C(O)(c1ccccc1)c1ccccc1)C(O)(c1ccccc1)c1ccccc1 (stereo not given),inactive: 101%
19,N#Cc1nc(-c2ccccc2Cl)oc1N1CCOCC1,inconclusive: -43.3%
20,Cc1ccc(C)c(NC(=O)COC(=O)c2cccc3c2C(=O)c2ccccc2C3=O)c1,inactive: 54.9%
21,C(=N\N1CCN(c2ccccc2)CC1)/c1ccccc1,active: -123%
22,CCCCOc1ccc(-c2nnc(-c3ccco3)o2)cc1,inactive: 60.2%
23,CC(=O)c1ccc(OCc2cc(C(=O)NC(C)CCn3cccn3)no2)cc1 (stereo not given),active: -164%
